Data reported in paper PMC3493102 (Molecular Medicine Reports, 2012).
Several values for one entry are separate records, joined by “and”; a condition that tells them apart may be missing. Equal entries are not always repeated.

Tests used:
[1] = target: the molecule itself; assay: reducing SDS-PAGE and western blotting
[2] = target: the molecule itself; assay: non-reducing SDS-PAGE and western blotting

B1: recombinant human wild-type mannan-binding lectin (MBL) (natural protein)
chain: not shown
stoichiometry N [1]: 2
stoichiometry N [2]: 3 and 4
